Tests used:
Cytochrome P450 1A2 = target: T1, Cytochrome P450 1A2 (Homo sapiens, UniProt P05177); conditions: bti-tn-5b1-4
T1 sequence (P05177 whole entry): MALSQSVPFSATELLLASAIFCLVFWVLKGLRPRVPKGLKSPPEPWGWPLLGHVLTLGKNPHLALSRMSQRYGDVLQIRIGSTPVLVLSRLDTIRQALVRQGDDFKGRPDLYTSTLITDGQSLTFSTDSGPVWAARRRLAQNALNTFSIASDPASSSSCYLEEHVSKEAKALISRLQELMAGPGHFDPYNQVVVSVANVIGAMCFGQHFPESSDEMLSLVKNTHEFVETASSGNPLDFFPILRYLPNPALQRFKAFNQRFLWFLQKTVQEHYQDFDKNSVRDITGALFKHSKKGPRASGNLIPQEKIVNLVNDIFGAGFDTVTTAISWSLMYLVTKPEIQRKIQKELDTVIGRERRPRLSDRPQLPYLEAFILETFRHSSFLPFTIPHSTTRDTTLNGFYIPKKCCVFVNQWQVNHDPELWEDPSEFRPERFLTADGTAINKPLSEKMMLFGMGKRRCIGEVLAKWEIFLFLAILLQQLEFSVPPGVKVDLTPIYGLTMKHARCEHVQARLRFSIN

Cytochrome P450 2A6 = target: T2, Cytochrome P450 2A6 (Homo sapiens, UniProt P11509); conditions: bti-tn-5b1-4
T2 sequence (P11509 whole entry): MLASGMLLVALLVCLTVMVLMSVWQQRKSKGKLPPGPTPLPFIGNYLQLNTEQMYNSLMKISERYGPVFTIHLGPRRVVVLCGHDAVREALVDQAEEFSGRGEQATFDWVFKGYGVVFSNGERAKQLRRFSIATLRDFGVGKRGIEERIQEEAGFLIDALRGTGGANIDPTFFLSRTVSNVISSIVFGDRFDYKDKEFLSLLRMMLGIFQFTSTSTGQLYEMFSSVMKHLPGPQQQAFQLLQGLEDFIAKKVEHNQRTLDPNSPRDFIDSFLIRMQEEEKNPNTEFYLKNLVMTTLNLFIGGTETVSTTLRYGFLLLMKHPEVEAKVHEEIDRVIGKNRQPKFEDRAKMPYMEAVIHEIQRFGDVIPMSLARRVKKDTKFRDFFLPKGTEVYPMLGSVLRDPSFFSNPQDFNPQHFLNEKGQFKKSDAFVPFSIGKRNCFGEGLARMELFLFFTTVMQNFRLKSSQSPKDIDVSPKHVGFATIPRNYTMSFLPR

Cytochrome P450 2C19 = Cytochrome P450 2C19 (Homo sapiens, UniProt P33261); conditions: bti-tn-5b1-4
Cytochrome P450 2C9 = Cytochrome P450 2C9 (Homo sapiens, UniProt P11712); conditions: bti-tn-5b1-4
Cytochrome P450 2D6 = Cytochrome P450 2D6 (Homo sapiens, UniProt P10635); conditions: bti-tn-5b1-4
Cytochrome P450 2E1 = Cytochrome P450 2E1 (Homo sapiens, UniProt P05181); conditions: bti-tn-5b1-4
Cytochrome P450 3A4 = Cytochrome P450 3A4 (Homo sapiens, UniProt P08684); conditions: bti-tn-5b1-4
[1] = target: Voltage-gated inwardly rectifying potassium channel KCNH2 (Homo sapiens, UniProt Q12809); conditions: hek293
Further: in other assays of this panel Not Active means under 50% inhibition at 10 µM.

Chain of Voltage-gated inwardly rectifying potassium channel KCNH2 (Q12809 whole entry): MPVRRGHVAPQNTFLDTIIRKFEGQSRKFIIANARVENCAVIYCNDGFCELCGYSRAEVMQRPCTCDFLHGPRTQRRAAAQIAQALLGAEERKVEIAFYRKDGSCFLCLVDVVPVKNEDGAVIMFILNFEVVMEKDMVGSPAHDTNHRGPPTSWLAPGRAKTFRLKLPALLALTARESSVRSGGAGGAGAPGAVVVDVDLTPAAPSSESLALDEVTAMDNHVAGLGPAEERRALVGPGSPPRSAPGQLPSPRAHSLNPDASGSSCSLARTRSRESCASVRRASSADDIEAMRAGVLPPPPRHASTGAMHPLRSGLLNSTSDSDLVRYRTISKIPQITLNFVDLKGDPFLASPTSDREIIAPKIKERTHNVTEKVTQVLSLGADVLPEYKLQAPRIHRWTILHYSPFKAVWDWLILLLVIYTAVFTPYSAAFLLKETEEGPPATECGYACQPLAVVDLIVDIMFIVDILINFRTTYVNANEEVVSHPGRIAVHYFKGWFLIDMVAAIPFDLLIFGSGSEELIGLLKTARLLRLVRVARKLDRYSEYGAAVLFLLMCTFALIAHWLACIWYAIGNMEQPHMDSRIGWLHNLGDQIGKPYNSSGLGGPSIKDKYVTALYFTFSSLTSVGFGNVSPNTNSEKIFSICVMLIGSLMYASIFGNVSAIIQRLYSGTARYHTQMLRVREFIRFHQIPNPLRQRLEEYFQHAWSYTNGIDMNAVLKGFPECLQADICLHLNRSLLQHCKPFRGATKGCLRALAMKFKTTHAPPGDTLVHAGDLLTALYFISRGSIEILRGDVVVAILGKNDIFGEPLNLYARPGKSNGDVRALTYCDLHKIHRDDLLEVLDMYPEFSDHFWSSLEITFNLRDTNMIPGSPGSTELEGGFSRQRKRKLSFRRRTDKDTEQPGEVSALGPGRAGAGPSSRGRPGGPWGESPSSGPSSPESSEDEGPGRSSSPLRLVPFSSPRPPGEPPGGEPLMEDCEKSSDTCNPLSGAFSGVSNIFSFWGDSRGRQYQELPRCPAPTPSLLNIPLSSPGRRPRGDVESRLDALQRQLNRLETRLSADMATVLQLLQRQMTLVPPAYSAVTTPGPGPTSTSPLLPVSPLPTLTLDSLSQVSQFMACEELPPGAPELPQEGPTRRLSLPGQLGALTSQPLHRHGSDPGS
Chain of Cytochrome P450 3A4 (P08684 whole entry): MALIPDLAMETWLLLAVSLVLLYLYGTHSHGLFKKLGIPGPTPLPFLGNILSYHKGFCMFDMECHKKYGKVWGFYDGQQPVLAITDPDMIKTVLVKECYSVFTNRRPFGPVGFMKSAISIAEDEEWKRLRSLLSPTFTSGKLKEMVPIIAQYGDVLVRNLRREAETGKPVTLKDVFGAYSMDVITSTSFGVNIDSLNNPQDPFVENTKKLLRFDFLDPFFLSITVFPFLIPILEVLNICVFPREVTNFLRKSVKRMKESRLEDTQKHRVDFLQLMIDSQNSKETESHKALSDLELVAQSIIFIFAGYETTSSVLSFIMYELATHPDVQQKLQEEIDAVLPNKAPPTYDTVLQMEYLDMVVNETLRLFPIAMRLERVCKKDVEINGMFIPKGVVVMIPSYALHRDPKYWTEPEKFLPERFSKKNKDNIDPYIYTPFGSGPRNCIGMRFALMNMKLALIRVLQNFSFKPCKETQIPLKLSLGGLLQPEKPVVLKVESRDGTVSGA
Chain of Cytochrome P450 2C9 (P11712 whole entry): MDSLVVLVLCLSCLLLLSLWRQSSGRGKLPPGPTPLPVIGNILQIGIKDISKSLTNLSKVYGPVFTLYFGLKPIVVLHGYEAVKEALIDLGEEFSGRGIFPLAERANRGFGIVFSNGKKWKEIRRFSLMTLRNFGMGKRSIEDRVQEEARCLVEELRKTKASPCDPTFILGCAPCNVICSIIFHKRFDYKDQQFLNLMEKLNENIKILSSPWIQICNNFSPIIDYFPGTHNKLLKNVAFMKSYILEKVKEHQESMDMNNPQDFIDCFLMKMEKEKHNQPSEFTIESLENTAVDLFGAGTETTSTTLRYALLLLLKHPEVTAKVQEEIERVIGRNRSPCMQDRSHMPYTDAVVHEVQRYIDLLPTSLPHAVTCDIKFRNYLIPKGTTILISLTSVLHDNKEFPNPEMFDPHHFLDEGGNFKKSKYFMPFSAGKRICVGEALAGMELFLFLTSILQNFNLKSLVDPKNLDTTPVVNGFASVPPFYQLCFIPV
Chain of Cytochrome P450 2C19 (P33261 whole entry): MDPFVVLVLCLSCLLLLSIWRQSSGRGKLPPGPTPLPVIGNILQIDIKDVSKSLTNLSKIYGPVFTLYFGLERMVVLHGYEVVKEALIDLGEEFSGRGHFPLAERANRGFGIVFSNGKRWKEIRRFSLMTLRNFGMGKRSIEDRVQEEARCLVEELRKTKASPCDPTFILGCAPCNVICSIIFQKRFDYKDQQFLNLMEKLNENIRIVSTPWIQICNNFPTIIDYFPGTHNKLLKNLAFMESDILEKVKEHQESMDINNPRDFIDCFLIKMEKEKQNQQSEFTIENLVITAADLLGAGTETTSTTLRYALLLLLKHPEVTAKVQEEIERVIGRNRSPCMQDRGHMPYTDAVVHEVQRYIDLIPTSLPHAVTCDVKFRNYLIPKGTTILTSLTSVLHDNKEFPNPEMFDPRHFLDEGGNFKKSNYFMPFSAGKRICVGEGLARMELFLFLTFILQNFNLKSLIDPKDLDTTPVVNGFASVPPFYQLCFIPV
Chain of Cytochrome P450 2D6 (P10635 whole entry): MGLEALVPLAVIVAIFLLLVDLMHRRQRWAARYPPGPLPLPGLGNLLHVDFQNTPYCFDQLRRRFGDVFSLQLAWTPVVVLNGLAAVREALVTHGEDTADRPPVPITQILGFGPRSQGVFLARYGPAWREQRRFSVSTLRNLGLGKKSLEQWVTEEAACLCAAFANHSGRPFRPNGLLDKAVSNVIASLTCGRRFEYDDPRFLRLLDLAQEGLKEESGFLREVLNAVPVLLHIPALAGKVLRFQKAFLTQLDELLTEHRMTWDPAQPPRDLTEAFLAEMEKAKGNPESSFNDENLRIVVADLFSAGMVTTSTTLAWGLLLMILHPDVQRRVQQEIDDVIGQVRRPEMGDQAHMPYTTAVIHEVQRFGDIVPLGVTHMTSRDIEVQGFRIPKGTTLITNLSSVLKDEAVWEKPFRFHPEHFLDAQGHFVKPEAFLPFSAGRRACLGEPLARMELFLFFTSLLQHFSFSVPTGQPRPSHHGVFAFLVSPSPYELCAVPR
Chain of Cytochrome P450 2E1 (P05181 whole entry): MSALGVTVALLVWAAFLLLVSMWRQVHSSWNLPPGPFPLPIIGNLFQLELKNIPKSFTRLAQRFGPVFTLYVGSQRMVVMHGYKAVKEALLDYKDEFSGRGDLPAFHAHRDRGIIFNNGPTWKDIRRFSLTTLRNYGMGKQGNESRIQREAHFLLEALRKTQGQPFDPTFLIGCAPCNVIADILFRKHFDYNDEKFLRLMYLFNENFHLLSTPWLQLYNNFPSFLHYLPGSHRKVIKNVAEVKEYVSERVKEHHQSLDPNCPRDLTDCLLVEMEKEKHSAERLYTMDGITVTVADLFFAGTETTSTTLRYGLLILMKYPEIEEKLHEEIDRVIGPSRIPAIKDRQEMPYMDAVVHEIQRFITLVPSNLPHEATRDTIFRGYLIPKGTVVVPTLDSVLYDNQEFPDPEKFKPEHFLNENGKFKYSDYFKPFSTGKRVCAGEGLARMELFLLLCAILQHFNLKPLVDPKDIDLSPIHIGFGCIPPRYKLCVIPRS

Nc1nc2ccc(OC(F)(F)F)cc2s1 [RILUZOLE]
Not Active: IC50 (Cytochrome P450 1A2) | Ki (Cytochrome P450 1A2) | IC50 (Cytochrome P450 2A6) | Ki (Cytochrome P450 2A6) | IC50 (Cytochrome P450 2C19) | Ki (Cytochrome P450 2C19) | IC50 (Cytochrome P450 2C9) | Ki (Cytochrome P450 2C9) | IC50 (Cytochrome P450 2D6) | Ki (Cytochrome P450 2D6) | IC50 (Cytochrome P450 2E1) | Ki (Cytochrome P450 2E1) | IC50 (Cytochrome P450 3A4) | Ki (Cytochrome P450 3A4) | IC50 [1] | Ki [1]

From ChEMBL document CHEMBL1909046, “DrugMatrix in vitro pharmacology data”
